Out of some 52,000 compounds screened, about 1,700 (3.3%) were called active. No stated cut-off is given here; in the data, active means survival mostly below about 52% (no sharp cut-off); inactive means mostly above about 56%. The list shows a part of the results.
The compounds below were run on Wild type (assay: growth inhibition of S. aureus wild type versus tarO mutant, primary screen, teichoic acid synthesis inhibitors, RN4220, OD600 (AID 463173)). Details: S. aureus RN4220 wild type/DeltatarO growth, OD600, 18 h, active compounds read low, screened at 18.75 µg/mL (by protocol).

SMILES	survival
COc1ccc(-c2noc(CSc3nc(C)cc(=O)[nH]3)n2)cc1OC	inactive: 52%
Cc1ccc(C)c(NC(=O)Cn2c(=O)n(Cc3ccc4c(c3)OCO4)c(=O)c3oc4ccccc4c32)c1	inactive: 88%
CC1=C(C(N)=O)C(c2cccc(C)c2)n2nc(-c3cccc(C)c3)nc2N1 (configuration not stated)	inactive: 64%
CCOC(=O)C1CCN(S(=O)(=O)c2ccc(N3CCCCS3(=O)=O)cc2)CC1	inactive: 69%
COc1cc(C(Nc2ccc(S(=O)(=O)N3CCCC3)cc2)C(=O)NC(C)(C)C)cc(OC)c1OC (configuration not stated)	inactive: 105%
Cc1ccc(CNC(=O)c2cc(-c3ccc(C)cc3)nc3n[nH]c(-c4ccc(F)cc4)c23)cc1	inactive: 58%
CC(C)C1N=C2c3ccccc3N=C(SCC(=O)NCc3ccccc3Cl)N2C1=O (configuration not stated)	inactive: 95%
CCn1c(SCc2ccc(F)cc2Cl)nc(=O)c2c(C(=O)OC)cc(C3CC3)nc21	inactive: 84%
CCCn1c(=O)c2sccc2n2c(CCCC(=O)Nc3ccc(Oc4ccccc4)cc3)nnc12	inactive: 108%
O=C(c1ccc2c(c1)CCN2S(=O)(=O)c1ccc(Cl)cc1)N1CCN(c2ccccc2)CC1	inactive: 87%
COc1ccc(OC)c(CNC(=O)c2c(C)oc3ncn(C)c(=O)c23)c1	inactive: 70%
CCOc1ccc(CN2C(=O)c3ccccc3Sc3ccc(C(=O)OC)cc32)cc1	inactive: 71%
CC(=O)Nc1ccc(S(=O)(=O)NCc2cccn2Cc2cccc(C)c2)cc1	inactive: 70%
COc1ccc(N2CC(NC(=O)c3ccco3)CC2=O)cc1OC (configuration not stated)	inactive: 68%
O=C(CSc1nnc(Cn2nnc3ccccc32)o1)N1c2ccccc2CCc2ccccc21	inactive: 95%
COc1ccc(CNC(=O)c2ccc3c(c2)N(Cc2ccccc2C)C(=O)c2ccccc2S3=O)cc1 (configuration not stated)	inactive: 73%
O=C(NCc1ccc(F)cc1)C1CCN(c2ncnc3c2nc2n3CCCCC2)CC1	inactive: 93%
COc1ccc(CNc2oc(/C=C/c3cccc(OC)c3)nc2C#N)cc1	inactive: 75%
O=C(CN1CCC(N2CCCCC2)CC1)c1ccc2c(c1)OCCO2	inactive: 128%
COc1cc(C(CC(=O)Nc2cc(C)ccc2C)N2Cc3ccccc3C2=O)cc(OC)c1OC (configuration not stated)	inactive: 75%
CN(Cc1ccccc1)C(=O)c1cccc(NC(=O)c2nsc3ccccc23)c1	inactive: 100%
CCOCCCNC(=O)c1cn(CC)c2ccc(S(=O)(=O)N3CCc4ccccc4C3)cc2c1=O	inactive: 78%

SMILES	survival
Cc1ccc2nc(-c3ccncc3)c(Nc3ccc(C(C)C)cc3)n2c1	inactive: 78%
CCOC(=O)c1[nH]c(C)c(CCC(=O)N2CCN(c3cccc(C)c3C)CC2)c1C	inactive: 89%
CC(=O)c1ccc(NC(c2ccc(F)cc2)c2nnc(-c3ccccc3)o2)cc1 (configuration not stated)	inactive: 85%
CC(C)(C)OC(=O)N1CCC(c2c(C(=O)N3CCN(c4ccccn4)CC3)cnn2-c2ccccc2Cl)CC1	inactive: 53%
CCOCCc1nn2c(=O)cc(COC(=O)CNC(=O)c3ccc(F)cc3)nc2s1	inactive: 71%
Cc1ccc(CSc2nc(-c3ccc(C(C)(C)C)cc3)nc3cc(=O)[nH]n23)cc1	inactive: 113%
CCc1ccc(Nc2sc(C(=O)c3ccccc3)c(N)c2S(C)(=O)=O)cc1	inactive: 72%
CCOc1ccc(CC(=O)NCCc2csc(-c3ccc(Cl)cc3)n2)cc1	inactive: 73%
COC(=O)c1c(-c2cccs2)csc1NC(=O)c1cc(OC)c(OC)c(OC)c1	inactive: 76%
CC(C)CCNC(=O)c1nn(C)c2c1CSc1ccccc1-2	inactive: 89%
COc1ccc(-c2cn3c(n2)sc2cc(C(=O)Nc4ccc(F)cc4Cl)ccc23)cc1	inactive: 88%
COc1ccc(-n2ccn(CC(=O)Nc3ccc(C)c(C)c3)c(=O)c2=O)cc1OC	inactive: 96%
CCOc1cc2[nH]c(=O)n(CCCC(=O)NCc3ccc(OC)cc3)c(=O)c2cc1OCC	inactive: 74%
Cc1ccc(NC(=O)C(=O)NCC(c2cccnc2)N2CCc3ccccc3C2)cc1 (configuration not stated)	inactive: 83%
C=Cc1ccc(Cn2c(C(=O)O)c(CNCc3ccccc3)c3ccc(OC)cc32)cc1	inactive: 107%
CC1CCCN(S(=O)(=O)c2cc(C(=O)NCc3ccccc3Cl)n(C)c2)C1 (configuration not stated)	inactive: 71%
Cc1ccc(F)cc1NC(=O)CCSc1nc(-c2ccco2)cc(C(F)(F)F)n1	inactive: 69%
O=C(c1ccc(-n2cnnn2)cc1)N(C1CCCCC1)C1CCCCC1	inactive: 109%
CCN(C(=O)c1cc2cc(Br)cc(OC)c2oc1=O)c1ccccc1	inactive: 76%
O=C(CSCc1ccccc1Cl)N/N=C/c1ccc(O)cc1O	inactive: 122%
O=C(NC1CCCCCC1)c1ccc(CS(=O)c2ccc(Br)cc2)o1 (configuration not stated)	inactive: 94%
O=C(COC(=O)c1cccs1)Nc1ccccc1	inactive: 119%

SMILES	survival
COc1cccc(C2c3c(-c4ccccc4O)n[nH]c3C(=O)N2Cc2cccnc2)c1 (configuration not stated)	inactive: 89%
O=S(=O)(Nc1ccc(-c2ccc(N3CCCC3)nn2)cc1)c1ccc(OC(F)(F)F)cc1	active: -6%
Cc1ccc(NC(=O)CSCc2cnn(-c3ccccc3)c2-n2cccc2)c(Cl)c1	inactive: 86%
CCc1ccccc1NC(=O)Cn1c(=O)n(-c2ccc(C)c(C)c2)c(=O)c2oc3ccccc3c21	inactive: 86%
Nc1ncc(Cc2ccccc2)s1	inactive: 97%
COc1cc(Br)ccc1C1C(C(=O)Nc2ccc(C)cc2C)=C(C)Nc2nnnn21 (configuration not stated)	inactive: 171%
COc1ccc(CCNc2nc3ccccc3c3nc(-c4cccc(C)c4)nn23)cc1OC	inactive: 24%
COc1ccc(S(=O)(=O)NCCc2sc(-c3cccc(C)c3)nc2C)cc1	inactive: 72%
Cc1ccc(CCNC(=O)c2cccc(Nc3nc4ccccc4nc3-n3nc(C)cc3C)c2)cc1	inactive: 70%
Cc1nn(CC(=O)N2CCN(c3cccc(Cl)c3)CC2)c(=O)c2c1sc1ccccc12	inactive: 82%
CCOC(=O)c1ccc(NC(=O)CCc2c(C)nc3c(c(C)nn3C(C)(C)C)c2C)cc1	inactive: 75%
CCc1ccc(-n2nc(C)c3c(C(=O)N4CCN(c5cccc(Cl)c5)CC4)cc(C)nc32)cc1	inactive: 124%
CC(C)CCNC(=O)c1ccc(Cn2c(SCC(N)=O)nc3ccccc3c2=O)cc1	inactive: 64%
CCOc1cc(C(=O)OCc2cc(=O)n3nc(C4CC4)sc3n2)cc(OCC)c1OCC	inactive: 71%
O=c1sc(Nc2ccccc2)nc2ccccc12	inactive: 106%
COc1cc(OC)c(NC(=O)NCc2cccn2Cc2ccccc2)cc1Cl	inactive: 87%
CCCc1ccc(-c2ccc(C(=O)Oc3ccc(Br)cc3)cc2)nc1	inactive: 140%
CCOc1ccc(NC(=O)Cn2c(=O)c(CNc3ccccc3)cc3cc4c(cc32)OCCO4)cc1	inactive: 65%
O=C1COc2cc(S(=O)(=O)CCC(=O)N3CCN(c4ccccc4)CC3)c(Cl)cc2N1	inactive: 95%
Cc1ccc(S(=O)(=O)NCCc2nnc3ccc(SCC(=O)Nc4ccc(OC(F)(F)F)cc4)nn23)cc1	inactive: 89%
CN(C(=O)Cn1ncc2c1-c1ccccc1OC2)c1ccc(Br)cc1	inactive: 73%
CCS(=O)(=O)c1cccc(C(=O)N2CCN(c3nc4c(C)ccc(Cl)c4s3)CC2)c1	inactive: 73%

SMILES	survival
CCCCCn1c(CNC(=O)c2ccc(F)cc2)nc2ccccc21	inactive: 90%
COC(=O)c1ccc(CSc2nc3c([nH]c4ccccc43)c(=O)n2-c2cc(C)cc(C)c2)o1	active: 0%
COc1ccc(OC)c(CCNC(=O)C(C)n2c(C)c3cnn(-c4ccccc4)c(=O)c3c2C)c1 (configuration not stated)	inactive: 87%
COc1ccccc1CNS(=O)(=O)c1ccc(N2CCCCS2(=O)=O)cc1	inactive: 73%
CN(C)C1(CNC(=O)COc2ccc(C(C)(C)C)cc2)CCCCC1	inactive: 97%
CCOC(=O)c1c(C)[nH]c(C)c1S(=O)(=O)N1CCC(C(=O)NCc2ccc(N(C)C)cc2)CC1	inactive: 55%
CCCCCn1c(-c2cccc(C)c2)nc2ccccc21	active: 11%
O=C(Nc1ccc2c(c1)OCO2)c1cc(-c2ccc(Cl)cc2)on1	inactive: 92%
COc1ccccc1OCC(=O)Nc1c(C(=O)c2ccc(C)cc2)oc2ccccc12	inactive: 73%
Cc1cc(C)cc(-n2ccnc(NCc3ccc(F)cc3)c2=O)c1	inactive: 70%
COc1ccc(Cl)cc1C(=O)Nc1c2c(nn1-c1ccc(Cl)cc1)CS(=O)(=O)C2	inactive: 97%
COc1ccccc1NC(=O)c1oc2ccccc2c1NC(=O)COc1ccccc1OC	inactive: 86%
COc1ccc(Cl)cc1NC(=O)CSc1nc(=O)[nH]c2c1CCCC2	inactive: 71%
CCOc1ccc(CNC(=O)C2=Cc3cc(Br)ccc3OC2)cc1OC	inactive: 78%
Cc1ccc(Cn2c(=O)n(-c3ccc(C)c(C)c3)c(=O)c3c(C)c(C)sc32)cc1	active: 46%
CCOc1ccc(NC(=O)Cn2cc(C(=O)c3ccccc3)c(=O)c3cc4c(cc32)OCO4)cc1	inactive: 80%
COc1cc(NC(=O)N2CCC(CN3CCc4ccccc4C3)CC2)cc(OC)c1	inactive: 81%
Cc1ccc2oc(-c3ccc(NC(=O)c4cccc(F)c4)c(C)c3)nc2c1	inactive: 100%
CC(=O)N1c2c(cc(Br)cc2S(=O)(=O)NCc2ccccc2Cl)CC1C (configuration not stated)	inactive: 73%
COc1ccc(NC(=O)c2cc(C)nc3c2c(C)nn3-c2cccc(Cl)c2C)c(OC)c1	inactive: 85%
COc1cc(Cl)c(NC(=O)CN(C)S(=O)(=O)c2ccc3c(c2)CCCC(=O)N3)c(OC)c1	inactive: 59%

Source: PubChem BioAssay AID463173 (ICCB-Longwood Screening Facility, Harvard Medical School, 2010)
